Assay results published in US20160052993A1 (ELEVEN BIOTHERAPEUTICS, published 2016).

Target: single-chain human FcRn, FLAG/His-tagged (human, UniProt P61769 fragment; P55899 fragment)
Assay: SPR, schFcRn immobilised; by the numbers, the ratio of KD at pH 7.4 to KD at pH 6.0

Fold increase: 930 fold
B1: HSA13 (V418M, T420A, E505G, V547A) (other)
chain: not shown
notes: mature; used for the co-crystal structure (PDB 4K71)
